# Laboratory results taken from PubChem BioAssay AID1347073 (National Center for Advancing Translational Sciences (NCATS), 2019).
# Hit rate of the full screen: of about 45,000 compounds, about 200 (0.44%) were called active. Not shown: some 7% with an inconclusive outcome. The call rests on the fitted dose curve; in most records, active means well fitted activation curve with a large enough effect; inconclusive means small, poorly fitted or top-dose-only effect; inactive means no such curve, though single readings can be large or run the other way. Some of the results follow.
# Assay: qHTS of TDP-43 Inhibitors: NCGC Sytravon Library Screen; further: nearly all actives have a fitted effect of over 55% in size; on growth rescue (activation): 0% is about no effect
# Details: yeast TDP-43 toxicity rescue, BacTiter-Glo growth, 24 h; series mostly up to 46.1 µM; growth rescue (activation): at the top concentration
# Method in brief: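 TDP-43-expressing yeast, pregrown in raffinose, seeded at OD600 0.02 in galactose medium with compound for 24 hr at 30 deg C. Growth read by BacTiter-Glo luminescence, so rescue of toxicity appears as activation.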
# Potency means the concentration at half of the fitted maximal effect.
SMILES,growth rescue (activation),Potency
CS(=O)(=O)CCC(C(=O)OCc1ccc(Br)cc1)N1C(=O)c2ccccc2C1=O (centres undefined),inactive: 7.47%,–
Brc1ccc(-c2csc(N/N=C/c3ccc4c(c3)OCO4)n2)cc1,inactive: 7.41%,–
COc1ccccc1CCNC(=O)CNC(=O)c1ccc2ccccc2c1,inactive: 7.44%,–
Cc1ccc(NC(=O)C2=CN3CCS(=O)(=O)N=C3C=C2)cc1,inactive: 2.21%,–
Cc1ccc(CNc2ccc(N3CCOCC3)cc2)cc1,inactive: -9.89%,–
Cc1ccc2nc(-c3ccc(NC(=O)CN4C(=O)NC(C)(c5ccc(OC(F)F)cc5)C4=O)cc3)sc2c1 (centres undefined),inactive: 12.5%,–
COc1ccccc1NC(=O)CSc1nnc(NC(=O)C2CC2)s1,inactive: 4.22%,–
CCOCCCNC(=O)c1ccc(Cn2c(=S)[nH]c3c([nH]c4ccc(OC)cc43)c2=O)cc1,inactive: -11.9%,–
O=C1NC2(CCC3(CC2)OCCO3)NN1c1ccccc1,inactive: 12.6%,–
CC1CCc2c(sc(NC(=O)CN3CCN(C(=O)c4ccco4)CC3)c2C#N)C1 (centres undefined),inactive: 37.3%,–
Cc1cc2oc(C(=O)N(Cc3ccc(Cl)cc3)Cc3ccco3)c(C)c2cc1Cl,inactive: 0.865%,–
Cc1ccnc(N2CCCC(C(=O)NC3CC3)C2)n1 (centres undefined),inactive: 7.05%,–
CCCCCc1ccc(-c2ccc(OC)cc2)nc1,inactive: 30.4%,–
CC1C/C(=N\NC(=O)CCc2ccc(S(=O)(=O)N3CCOCC3)cc2)CC(C)(C)C1 (centres undefined),inactive: 7.04%,–
Cc1c(NC(=O)c2cccs2)cccc1NC(=O)c1cccs1,inactive: 10.1%,–
Cc1ccc(CC(=O)Nc2ccc(C(=O)N3CCCCC3)cc2)cc1,inactive: 8.92%,–
COc1cccc(NC(=O)Nc2ccc(CC(=O)O)cc2)c1,inactive: -2.07%,–
CCOC(=O)c1cc(-c2ccccc2)n(CC(=O)Nc2cccc(OC)c2)c1C,inactive: 21.6%,–
CCOC(=O)c1sc2cc([N+](=O)[O-])cc(SCCO)c2c1N,inactive: 10.6%,–
Nn1c(Nc2ccccc2)nc2ccccc21,inactive: -10.6%,–
Cc1cc(OCCCC(=O)NCCc2ccccn2)ccc1Cl,inactive: -1.5%,–
COc1ccc(CN2CCN(C(C)C(=O)N3CCc4ccccc43)CC2)cc1OC (centres undefined),inactive: 3.2%,–
Cc1ccc(NC(=O)Cc2csc(-c3ccccc3)n2)cc1F,inactive: 10.4%,–
NC(=O)CCN(C1CCCCC1)S(=O)(=O)c1cccc2nsnc12,inactive: 13.1%,–
Cc1cc(=O)[nH]c(SCC(=O)NCC2CCCCC2)c1C#N,inactive: 15.5%,–
CC(Nc1nc(-c2cccnc2)nc2ccccc12)c1ccc(F)cc1 (centres undefined),inactive: 2.21%,–
Cc1nccn1CC(O)COc1ccc([N+](=O)[O-])cc1 (centres undefined),inactive: 0.904%,–

SMILES,growth rescue (activation),Potency
Cc1nn(-c2ccc(F)cc2)c(Cl)c1/C=C(/CCC(=O)O)c1nc2ccccc2s1,inactive: 2.28%,–
CCOC(=O)c1cccc(NC(=O)c2ccc(NC(=O)C3CCCO3)cc2)c1 (centres undefined),inactive: 21.7%,–
COc1ccc(N2C(=O)/C(=C3/C=CC=CN3C)SC2=S)cc1,inactive: -4.7%,–
Cn1c(NCc2cccc(Cl)c2)nc2ccccc21,inactive: 4.91%,–
O=C(NCc1ccccc1)c1ccc(=O)oc1,inactive: 14.3%,–
CC1CCc2c(sc3ncnc(NCc4cccnc4)c23)C1 (centres undefined),inactive: 4.85%,–
CC1CCCCC1NCC(=O)Nc1ccccc1C(=O)Nc1ccccc1 (centres undefined),inactive: 13.7%,–
CN(Cc1ccccc1)C(=O)COC(=O)C1=NNC(=O)CC1,inactive: 2.44%,–
Brc1ccc(-c2csc3[n+]2CCCCC3)cc1,inactive: -5%,–
Cc1cc(NC(=O)C2CC(c3c(F)cccc3Cl)=NO2)n(-c2ccccc2)n1 (centres undefined),inactive: 11.9%,–
CCS(=O)(=O)c1ncc(Cl)c(C(=O)Nc2ccc(S(=O)(=O)N(C)c3ccccc3)cc2)n1,inactive: -3.88%,–
NC(Cc1ccc(C(F)(F)F)cc1)c1csc(Nc2cnccn2)n1 (centres undefined),inactive: 10.3%,–
C/C(=N\NC(=O)COc1ccc(C(C)(C)C)cc1)c1ccc(-n2ccnc2)cc1,inactive: 23%,–
Cc1ccc(NC2=C(NCCO)C(=O)c3ccccc3C2=O)cc1,inactive: 7.94%,–
COc1cccc(C(=O)NC(=S)Nc2ccc(N(C)C)cc2)c1,inactive: 30.2%,–
COc1ccc(C(=O)NN/C(C)=C/C(=O)C(F)(F)C(F)(F)C(F)(F)F)cc1,inactive: 9.49%,–
O=C(/C=C/c1ccc(Cl)c(Cl)c1)N1CCc2ccccc21,inactive: -11.1%,–
CC(C)Oc1ccc(/C=N/NC(N)=S)cc1,–,active: 12.6 µM
CCc1nc2c(OCCC3CCCCC3)cccn2c1N(C=O)Cc1ccccc1,inactive: 10.3%,–
Cc1ccc(-n2c(NN)nc3ccccc3c2=O)c(C)c1,inactive: 16.9%,–
O=C(CSc1ncnc2ccccc12)c1cccs1,inactive: 20.3%,–
O=C(c1cc(-c2ccncc2)nc2ccccc12)N1CCN(c2ncccn2)CC1,inactive: -1.24%,–
O=C(COC(=O)c1ccc2c(=O)n3c(nc2c1)CCC3)Nc1ccc(OC(F)F)cc1,inactive: 9.43%,–
COc1cc(/C=N/NC(=O)CSc2nc3ccccc3n2C)cc(OC)c1OC,inactive: -17.3%,–
COc1ccc(C(C)(C)NC(=O)C2CCC(=O)N(C3CC3)C2)cc1OC (centres undefined),inactive: -0.164%,–
COC(=O)C1(C(F)(F)F)N=C(C(F)(F)F)Nc2ccc(Cl)cc21 (centres undefined),inactive: 19.5%,–
O=C(NCc1cc(Cl)cc(Cl)c1)c1ccc2nc([C@@H]3O[C@H](CO)[C@H](O)[C@H](O)[C@H]3O)[nH]c2c1,inactive: 0.0225%,–
